Some of the results follow. For part of these data: At the low end of the ranking the order means little. For part of these data: The protein was read in a cell extract, so binding may be indirect.
biological target: PU.1 (IVT) (UniProt P17947); assay: protein-binding microarray (PBM); conditions: 20 mM HEPES pH 7.9, 100 mM NaCl, 1 mM DTT, 0.2 mg/mL BSA, 0.02% Triton X-100, 2% milk, 0.4 mg/mL salmon testes DNA; 1 h; temperature not stated; high values mean tight binding; double strand, one strand shown; sequences stand for … in GCCTAGCAC…GTGCTAGGTCTTGATTCGCTTGACGCTGCTG

Row | Sequence | binding signal [z-score]
1 | TGACATTGCAAACACATGGC | 0.159
2 | AGAAGCGAGTAGGTGGGGAG | -0.382
3 | TGTATAATACAAAGCAAAAG | -0.167
4 | GTACCACATTCGAAATTGAA | -0.0236
5 | CAAGGCTGACTGTGGAACCC | -0.04
6 | TCGAGCATCTCCATCTTTCT | -0.0607
7 | ATGGGTTCCTTGAATTTCAG | 0.865
8 | TTTAAAGCTGCATGAAACTG | -0.145
9 | TAGATGACTGCGTGAAACTC | -0.412
10 | AGAGAGATGTGACTTGTCCA | 0.21
11 | CCAGTGCCATATAAACAATA | -0.438
12 | GCCCTGGGTTTCACTGGCCT | -0.0585
13 | TGCATTGCCTGGCCGGGTGA | -0.116
14 | CGAAAAGCTGCATGAAACCA | -0.57
15 | GTCACTCTCAGATACTGCCA | -0.702
16 | GGGAGAGGCAGGAAGGAGCC | 0.643
17 | AGCCCCAAGGCCGCTTGCCC | -0.923
18 | CTGGAGGATCCTTCTGCGCA | 0.458
19 | GAAGGAGGGAAGAGGCTGGA | -0.023
20 | GCTGCTCCCTCTTTTCTTCC | -0.412

Row | Sequence | binding signal [z-score]
21 | TGAGTTATGATCATGCCACT | -0.682
22 | CCGGGTTCAAGCGATTCTCC | -0.84
23 | TCTCAAAGCAGCTTGAAGCG | -0.977
24 | GGGAGATTTCAGGCACTTCC | 0.717
25 | CAAAGTTCTGTCTTCATGGA | -0.0387
26 | ACTTGTGAAGGAAATGAATC | 0.81
27 | CCAGCCTGGCCAAAGTGGTG | -0.775
28 | AGGGAGCAGCCTCCTGACTT | -0.744
29 | GAAAGGACTGCGTGAAACTA | -0.863
30 | ACAGAGTCTTGCTCTGTCGC | -0.609
31 | TTTATGGAAATAGCGGTTTT | 0.608
32 | CAGGGCACTGCGTGAAACCC | -0.663
33 | AAAGTTTCCAAAAGCTCCTG | -0.619
34 | AGCTGGGCATCCTCCATGAT | -0.431
35 | CAACAGCGTGCAGTCTTTTT | -0.652
36 | GAGGTTGCATCTTTTAAGAG | -0.146
37 | GATCCCCAAACGGAAAGAAA | -0.0793
38 | GAGTGAACTCACGTCCACAC | -0.708
39 | GCAATACTTTACACTCAACT | -0.266
40 | TTTTATTTTACAATTAAAAC | -0.18

biological target: PU.1 (endogenous, THP-1 nuclear extract) (UniProt P17947); assay: nuclear extract protein-binding microarray (nextPBM); conditions: 20 mM HEPES pH 7.9, 100 mM NaCl, 1 mM DTT, 0.2 mg/mL BSA, 0.02% Triton X-100, 2% milk, 0.4 mg/mL salmon testes DNA; 1 h; temperature not stated; high values mean tight binding; double strand, one strand shown; sequences stand for … in GCCTAGCAC…GTGCTAGGTCTTGATTCGCTTGACGCTGCTG

Row | Sequence | binding signal [z-score]
41 | TGACATTGCAAACACATGGC | -0.375
42 | AGAAGCGAGTAGGTGGGGAG | -0.275
43 | TGTATAATACAAAGCAAAAG | -0.337
44 | GTACCACATTCGAAATTGAA | -0.249
45 | CAAGGCTGACTGTGGAACCC | 0.235
46 | TCGAGCATCTCCATCTTTCT | -0.104
47 | ATGGGTTCCTTGAATTTCAG | 0.708
48 | TTTAAAGCTGCATGAAACTG | -0.376
49 | TAGATGACTGCGTGAAACTC | -0.526
50 | AGAGAGATGTGACTTGTCCA | -0.0295
51 | CCAGTGCCATATAAACAATA | -0.373
52 | GCCCTGGGTTTCACTGGCCT | -0.345
53 | TGCATTGCCTGGCCGGGTGA | -0.119
54 | CGAAAAGCTGCATGAAACCA | -0.421
55 | GTCACTCTCAGATACTGCCA | -0.346
56 | GGGAGAGGCAGGAAGGAGCC | 0.709
57 | AGCCCCAAGGCCGCTTGCCC | -0.428
58 | CTGGAGGATCCTTCTGCGCA | 0.336
59 | GAAGGAGGGAAGAGGCTGGA | 0.701
60 | GCTGCTCCCTCTTTTCTTCC | 0.0782

— article PMC6451091
